# Measurements published in the RNAGym collection of RNA variant scans (doi:10.7554/elife.90254).
# Read counts are not given, so values of variants with three or more changes are uncertain.
# B1: LINE1-full (parent)
# chain: UACGUAGGUGGUUUUCCCCUGAUAGUGCUAAGGGGGCCUGGAAGUUUGGACUGGGCAGAGCUCAACACAGCGUGGCAAAGUGGCUGUGGCUAGACUGCCUCUCUGGAUUCCUCGUCACUCAGCAGGGCAUCUCUGAGAGAAAUGCC
# Variants of: B1
# Experiment: self-cleavage, relative activity (ratio to wild type); higher = more cleavage; in vitro, sequencing; the parent is a self-cleaving ribozyme
row,Variant,self-cleavage
1,UACGUAGGUGGUUUUCCCCUGAUAGUGCUAAGGGGGCCUGGAAGUUUGGACUGGGCAGAGCUCAACACAGCGUGGCAAAGUGGCUGUGGCUAGACCGCCUCUCUGGAUACCUCGUCACUCAGCAGGCCAUCUCUGAGAGAAAUGCC [U96C U109A G127C],0.14
2,UACGUAGGUGGUUUUCCCCUGAUAGUGCUAAGGGGGCCUGGAAGUUUGGACUGGGCAGAGCUCAACACAGCGUGGCAAAGUGGCUGUGGCUAGACCGCCUCUCUGGAUUCCUAGUCACUCAGCAGGGCUUCUCUGAGAGAAAUGCC [U96C C113A A129U],0.08
3,UACGUAGGUGGUUUUCCCCUGAUAGUGCUAAGGGGGCCUGGAAGUUUGGACUGGGCAGAGCUCAACACAGCGUGGCAAAGUGGCUGUGGCUAGACAGCCUCUCUGGAUUCCUCGACGCUCAGCAGGGCAUCUCUGAGAGAAAUGCC [U96A U115A A117G],0
4,UACGUAGGUGGUUUUCCCCUGAUAGUGCUAAGGGGGCCUGGAAGUUUGGACUGGGCAGAGCUCAACACAGCGUGGCAAAGUGGCUGUGGCUAGACAGCCUCUCUGGAUUCCUCGUCACUCAGCAGGGCAUCUCUGAGGGAAAUUCC [U96A A138G G144U],0.13
5,UACGUAGGUGGUUUUCCCCUGAUAGUGCUAAGGGGGCCUGGAAGUUUGGACUGGGCAGAGCUCAACACAGCGUGGCAAAGUGGCUGUGGCUAGACCGCCUCUCUGGAUUCCUCGUCGCUCAGCAGGGCAUCUCUGAGAGAGAUGCC [U96C A117G A141G],0
6,UACGUAGGUGGUUUUCCCCUGAUAGUGCUAAGGGGGCCUGGAAGUUUGGACUGGGCAGAGCUCAACACAGCGUGGCAAAGUGGCUGUGGCUAGACAGCCUCUCUGGAUUCCUCGUCACACAGCGGGGCAUCUCUGAGAGAAGUGCC [U96A U119A A124G A142G],0.03
7,UACGUAGGUGGUUUUCCCCUGAUAGUGCUAAGGGGGCCUGGAAGUUUGGACUGGGCAGAGCUCAACACAGCGUGGCAAAGUGGCUGUGGCUAGACCGCCUCUCUGGACUCCUCGUCACACAGCAGGGCAUCUCUGAGAGAAAUGCC [U96C U108C U119A],0
8,UACGUAGGUGGUUUUCCCCUGAUAGUGCUAAGGGGGCCUGGAAGUUUGGACUGGGCAGAGCUCAACACAGCGUGGCAAAGUGGCUGUGGCUAGACCGCCUCUCCGGAUUCAUCGUCACUCUGCAGGGCAUCUCUGAGAGAAAUGCC [U96C U104C C111A A121U],0.12
9,UACGUAGGUGGUUUUCCCCUGAUAGUGCUAAGGGGGCCUGGAAGUUUGGACUGGGCAGAGCUCAACACAGCGUGGCAAAGUGGCUGUGGCUAGACCGCCUCUCUGGGUUCCUCGUCACUCAGCAGGGCAUCUCUGAGAGAGAUGCC [U96C A107G A141G],0
10,UACGUAGGUGGUUUUCCCCUGAUAGUGCUAAGGGGGCCUGGAAGUUUGGACUGGGCAGAGCUCAACACAGCGUGGCAAAGUGGCUGUGGCUAGACAGCCUCUCUGGAUUCCUCGUCACUCUGCGGGGCAUCUCUGAGAGAAAUGCC [U96A A121U A124G],0.06
11,UACGUAGGUGGUUUUCCCCUGAUAGUGCUAAGGGGGCCUGGAAGUUUGGACUGGGCAGAGCUCAACACAGCGUGGCAAAGUGGCUGUGGCUAGACAGCCUCGCUGGAUUCCUCGUCACUCAGCAGAGCAUCUCUGAGAGAAAUGCC [U96A U102G G126A],0.09
12,UACGUAGGUGGUUUUCCCCUGAUAGUGCUAAGGGGGCCUGGAAGUUUGGACUGGGCAGAGCUCAACACAGCGUGGCAAAGUGGCUGUGGCUAGACCGCCUCUCUGGAUACCUCGCCACUCAGCAGGGCAUCUCUGAGAGAAAUGCC [U96C U109A U115C],0
13,UACGUAGGUGGUUUUCCCCUGAUAGUGCUAAGGGGGCCUGGAAGUUUGGACUGGGCAGAGCUCAACACAGCGUGGCAAAGUGGCUGUGGCUAGACAGCCUCUCAGGAUUCCCCGUCACUCAGCAGGGCAUCUCUGAGAGAAAUGCC [U96A U104A U112C],0.12
14,UACGUAGGUGGUUUUCCCCUGAUAGUGCUAAGGGGGCCUGGAAGUUUGGACUGGGCAGAGCUCAACACAGCGUGGCAAAGUGGCUGUGGCUAGACCGCCCCUCUGGAUUCCUCGUCACUCAGCAGGGCAUCCCUGAGAGAAAUGCC [U96C U100C U132C],0.39
15,UACGUAGGUGGUUUUCCCCUGAUAGUGCUAAGGGGGCCUGGAAGUUUGGACUGGGCAGAGCUCAACACAGCGUGGCAAAGUGGCUGUGGCUAGACCGCCUCUCUGGAUUCCUCGCCACUCAGCAGGGCAUCUCUGAGAGAAAUGUC [U96C U115C C145U],0.71
16,UACGUAGGUGGUUUUCCCCUGAUAGUGCUAAGGGGGCCUGGAAGUUUGGACUGGGCAGAGCUCAACACAGCGUGGCAAAGUGGCUGUGGCUAGACAGCCUCUAAGGAUUCCUCGUCGCUCAGCAGGGCAUCUCUGAGAGAAAUGCC [U96A C103A U104A A117G],0
17,UACGUAGGUGGUUUUCCCCUGAUAGUGCUAAGGGGGCCUGGAAGUUUGGACUGGGCAGAGCUCAACACAGCGUGGCAAAGUGGCUGUGGCUAGACAGCCUCACUGGAUUCCUCGUCACCCAGCAGGACAUCUCUGAGAGAAAUGCC [U96A U102A U119C G127A],0.11
18,UACGUAGGUGGUUUUCCCCUGAUAGUGCUAAGGGGGCCUGGAAGUUUGGACUGGGCAGAGCUCAACACAGCGUGGCAAAGUGGCUGUGGCUAGACCGCCCCCCUGGAUUCCUCGUCACUCAGCAGGGCAUCUCUGAGAGAAAUGCC [U96C U100C U102C],0.21
19,UACGUAGGUGGUUUUCCCCUGAUAGUGCUAAGGGGGCCUGGAAGUUUGGACUGGGCAGAGCUCAACACAGCGUGGCAAAGUGGCUGUGGCUAGACCGCCUUUCUGGAUUCCUCGUCACUCAGCAGGGCUUCUCUGAGAGAAAUGCC [U96C C101U A129U],0.14
20,UACGUAGGUGGUUUUCCCCUGAUAGUGCUAAGGGGGCCUGGAAGUUUGGACUGGGCAGAGCUCAACACAGCGUGGCAAAGUGGCUGUGGCUAGACAGCCCCUCUGGAUUCCUCGUCGCUCAGCAGGGCAUCUCUGAGAGAAAUGCC [U96A U100C A117G],0.27
